The whole screen tested about 220,000 compounds, of which about 5,700 (2.6%) were called active. Inconclusive means that the source gave no clear call. Such entries were picked first, then a sample of the others. Calls come from the whole dose curve; as a rule, active = well fitted inhibition curve with a large enough effect; inconclusive = small, poorly fitted or top-dose-only effect; inactive = no such curve, though single readings can be large or run the other way. Where the call is inconclusive, the potency comes from a doubtful curve fit.
Molecular target: Lysine-specific demethylase 5B (Homo sapiens) (UniProt Q9UGL1)
Assay: Primary screen for KDM5B Histone Demethylases FDH-coupled qHTS; note: nearly all actives have a fitted effect of over 70% in size; for activity change, negative = inhibition: 0% is about no effect
Details: FDH-coupled NADH fluorescence (FDH is formaldehyde dehydrogenase); activity change, negative = inhibition: at 57.7 µM (top of the series) unless noted
Summary of the method: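 Measured: NADH fluorescence change, 30 min, RT. System: KDM5BΔAP 200 nM final, H3K4me3 peptide, α-KG, Fe(II), ascorbate, NAD⁺ plus FDH, pH 7.5 HEPES. Compounds: titrated, 10 min pre-incubation with enzyme.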
Potency is the fitted concentration of half-maximal effect; tags give direction and shape of the fitted curve.

UniProt Q9UGL1, sequence (Q9UGL1 whole entry, looked up): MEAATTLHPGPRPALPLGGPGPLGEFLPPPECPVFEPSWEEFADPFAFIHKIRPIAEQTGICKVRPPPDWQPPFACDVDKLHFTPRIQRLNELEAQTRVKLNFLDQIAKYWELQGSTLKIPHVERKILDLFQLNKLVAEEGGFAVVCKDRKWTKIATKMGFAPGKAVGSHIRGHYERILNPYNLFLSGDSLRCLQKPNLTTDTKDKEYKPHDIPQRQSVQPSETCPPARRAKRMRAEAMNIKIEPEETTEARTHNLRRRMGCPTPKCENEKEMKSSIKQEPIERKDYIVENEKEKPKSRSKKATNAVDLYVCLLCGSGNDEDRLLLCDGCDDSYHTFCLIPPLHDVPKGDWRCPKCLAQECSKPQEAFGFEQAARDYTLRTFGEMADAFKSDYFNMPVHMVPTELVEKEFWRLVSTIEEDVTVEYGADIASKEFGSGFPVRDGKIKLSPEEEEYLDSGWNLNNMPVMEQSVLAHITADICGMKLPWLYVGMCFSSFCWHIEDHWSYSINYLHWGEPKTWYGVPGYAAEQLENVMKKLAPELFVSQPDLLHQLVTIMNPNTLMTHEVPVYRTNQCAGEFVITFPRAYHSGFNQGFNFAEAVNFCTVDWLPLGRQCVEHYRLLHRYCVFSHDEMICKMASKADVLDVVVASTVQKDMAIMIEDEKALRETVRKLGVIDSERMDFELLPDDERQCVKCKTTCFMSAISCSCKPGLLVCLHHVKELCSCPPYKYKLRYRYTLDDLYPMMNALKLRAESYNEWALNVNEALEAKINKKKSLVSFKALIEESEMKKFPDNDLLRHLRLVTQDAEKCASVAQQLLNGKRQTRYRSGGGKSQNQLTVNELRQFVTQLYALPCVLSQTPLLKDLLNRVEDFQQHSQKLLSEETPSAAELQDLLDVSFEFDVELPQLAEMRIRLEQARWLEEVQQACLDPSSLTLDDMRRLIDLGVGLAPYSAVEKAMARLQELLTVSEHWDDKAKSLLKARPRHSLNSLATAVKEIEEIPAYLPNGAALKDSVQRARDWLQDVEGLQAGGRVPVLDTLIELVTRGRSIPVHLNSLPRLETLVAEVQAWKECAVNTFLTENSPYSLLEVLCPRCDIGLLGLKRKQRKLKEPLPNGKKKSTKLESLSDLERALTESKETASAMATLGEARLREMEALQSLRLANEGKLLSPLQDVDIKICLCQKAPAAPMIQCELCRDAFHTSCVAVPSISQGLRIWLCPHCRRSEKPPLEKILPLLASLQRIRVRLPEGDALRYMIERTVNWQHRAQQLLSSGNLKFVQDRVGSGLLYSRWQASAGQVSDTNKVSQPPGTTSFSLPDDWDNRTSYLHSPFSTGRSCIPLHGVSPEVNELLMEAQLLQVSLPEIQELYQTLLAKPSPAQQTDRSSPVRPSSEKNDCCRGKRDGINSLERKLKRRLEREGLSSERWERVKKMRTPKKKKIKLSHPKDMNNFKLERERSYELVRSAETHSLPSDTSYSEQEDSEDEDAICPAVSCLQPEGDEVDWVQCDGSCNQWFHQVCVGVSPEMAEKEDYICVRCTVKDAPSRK

SMILES	activity change, negative = inhibition	Potency
Cc1cc(C)c2oc(C(=O)N(Cc3ccc(Cl)cc3)C3CCS(=O)(=O)C3)cc(=O)c2c1 (stereo not given)	inactive: -14.4%	–
Cc1cc(=O)oc2cc(OCC(=O)NC3CCCCC3)ccc12	–	inconclusive: 25.1 µM [inhibitor, partial curve, poor fit]
COc1ccc(S(=O)(=O)Nc2ccc(Nc3cc(N4CCCC4)nc(C)n3)cc2)cc1C	inactive: -5.54%	–
CCCCC(CC)CNC(=O)c1nccnc1N (stereo not given)	–	inconclusive: 39.8 µM [inhibitor, single point]
COc1cccc(CN2CCn3c(nnc3[C@@H]3C[C@@H](O)CN3Cc3cccnc3)C2)c1OC	–	inconclusive: 17.8 µM [inhibitor, partial curve]
O=C(Nc1ccccc1)N1C[C@@H]2C[C@H](C1)c1ccc(-c3cccc(C(F)(F)F)c3)c(=O)n1C2	–	active: 31.6 µM
O=C1Nc2ccccc2CC12CCN2Cc1ccc(C(F)(F)F)cc1 (stereo not given)	inactive: -13.7%	–
CC(C)OCCCNC(=O)c1cc(=O)[nH]c2ccccc12	–	inconclusive: 39.8 µM [inhibitor, single point]
COC(=O)c1c(NC(=O)CN(C)CC(=O)Nc2ccc(C)cc2)sc2c1CCC(C)C2 (stereo not given)	–	inconclusive: 39.8 µM [inhibitor, partial curve, poor fit]
COc1ccc(C(=O)NCc2ccc3c(c2)CCN3C(=O)c2ccc(C)cc2)cc1	–	inconclusive: 22.4 µM [inhibitor, partial curve, poor fit]
CN1CCN(CCCOc2ccccc2CN2CCc3nc[nH]c3C2)CC1	–	inconclusive: 11.2 µM [inhibitor, partial curve, poor fit]
CC(C)Oc1ccc(-c2nc(NCc3ccco3)c3ccccc3n2)cc1	–	inconclusive: 31.6 µM [inhibitor, single point]
O=C(c1ccc(C(F)(F)F)cc1)N1CCc2nc(C3CC3)nc(-c3ccc(Cl)cc3)c2C1	–	inconclusive: 35.5 µM [inhibitor, partial curve, poor fit]
Cc1nn(Cc2ccccc2)c(C)c1[C@@H]1C=C[C@@H](NC(=O)CCCC(=O)O)C1	–	inconclusive: 35.5 µM [inhibitor, single point]
FC(F)(F)c1cccc(C2=NOC3(CCN(Cc4ccncc4)CC3)C2)c1	–	inconclusive: 15.8 µM [inhibitor, partial curve, poor fit]
COCCC1(NC(=O)C2CCOCC2)CCN(C(=O)C2CCCCC2)CC1	inactive: -10.1%	–
N#Cc1c(Nc2ccccc2C(F)(F)F)s[nH]c1=O	–	inconclusive: 8.91 µM [inhibitor, full curve, poor fit]
O=C(CCCc1ccccc1)NCc1nnc2c(-c3nc(C4CC4)no3)cccn12	–	active: 28.2 µM
Cc1ccc(C(=O)NCc2nc(-c3ccccc3)no2)cc1N1CCNC1=O	–	inconclusive: 35.5 µM [inhibitor, single point]
Cc1cn2nc(C(=O)NCCCc3ccccc3)cc2c(=O)[nH]1	inactive: -13.5%	–
C[C@H]1[C@@H]2[C@@H](O)C([C@H](C)C(=O)N3CCCC3)CC[C@@]2(C)CC[C@@H]1NC(=O)COc1ccccc1 (stereo not given in full)	–	inconclusive: 17.8 µM [inhibitor, single point]
COc1cccc(N2CCN(C(=O)CCCCCn3c(=O)[nH]c4ccccc4c3=O)CC2)c1	–	inconclusive: 35.5 µM [inhibitor, single point]
COc1ccc(CNC(=O)COc2cc(O)c3c(=O)cc(-c4ccccc4)oc3c2)cc1	inactive: 21.7%	–
O=C(Nc1ccc(Br)cc1F)N1CC=C(c2c[nH]c3ccccc23)CC1	–	inconclusive: 28.2 µM [inhibitor, partial curve, poor fit]

SMILES	activity change, negative = inhibition	Potency
O=C(CN1CCN(C(=O)CCc2ncc(-c3c(F)cccc3F)o2)CC1)Nc1cccc(F)c1	inactive: -14.1%	–
CC(=O)c1ccc(NC(=O)c2nc(-c3ccccc3)n(-c3ccccc3)n2)cc1	–	inconclusive: 31.6 µM [inhibitor, single point]
O=C1CC(c2nc(-c3ccc(Oc4ccccc4)cc3)no2)CN1c1ccccc1 (stereo not given)	inactive: 21.5%	–
Cn1cc(-c2ccnc(N3CCOCC3)c2)c2nc(COc3ccc(Cl)cc3)cn2c1=O	inactive: 20.9%	–
Cc1oc2c(c1C(=O)N(C)CCc1ccccn1)CN(Cc1cccc(F)c1)CC2	–	inconclusive: 31.6 µM [inhibitor, partial curve, poor fit]
O=C(CNc1cc(S(=O)(=O)N2CCOCC2)ccc1NCC1CCCO1)Nc1cccc(F)c1 (stereo not given)	–	inconclusive: 20 µM [inhibitor, partial curve, poor fit]
O=C1CO[C@H]2CN(c3ncccn3)C[C@H]2N1CC1CCCCC1	–	active: 35.5 µM
CC[C@@H]1[C@@H](NC(=O)c2cc(C)nc3c2c(=O)[nH]c(=O)n3C)[C@@H]2CCO[C@H]12	–	inconclusive: 35.5 µM [inhibitor, partial curve, poor fit]
CN1[C@@H](CCC(=O)N2CC[C@@H](O)C2)CNC(=O)[C@@H]2[C@H]1CCN2Cc1csnn1	–	inconclusive: 39.8 µM [inhibitor, partial curve, poor fit]
Cc1ccc(S(=O)(=O)NCc2nc3cccnc3n2Cc2ccccc2Cl)c(C)c1	–	inconclusive: 28.2 µM [inhibitor, single point]
CC1(C)CC(=O)C(CCS(=O)(=O)Oc2ccccc2)(CCS(=O)(=O)Oc2ccccc2)C(=O)C1	inactive: -5.51%	–
COCC1CN(C2CCC2)CC12CCN(C(=O)Cc1cccc(F)c1)CC2 (stereo not given)	inactive: -13.4%	–
CC1(COCC2CC2)COc2ccc(C(=O)NCc3ccccc3)cc2N1 (stereo not given)	–	active: 35.5 µM
Cc1ccc(Sc2nc3c(c(=O)[nH]c(=O)n3C)n2Cc2cccc(C)c2)cc1	inactive: 15.2%	–
O=C(Nc1ccc(Oc2ccccc2)cc1)c1n[nH]c(=O)c2ccccc12	inactive: 15.4%	–
CN1C[C@@H](NS(=O)(=O)Cc2ccccc2)C[C@H]1c1nc(Cc2ccccc2)no1	–	inconclusive: 35.5 µM [inhibitor, single point]
Cc1ccc2cc(C(=O)NC3CCS(=O)(=O)C3)[nH]c2c1 (stereo not given)	–	inconclusive: 39.8 µM [inhibitor, single point]
Cc1nc(-c2cn(C3CCCN(C(=O)c4sccc4C)C3)nn2)no1 (stereo not given)	inactive: 5.05%	–
COCc1cc(=O)n(CC(=O)Nc2ccc(C)c(Cl)c2)c(N2CCOCC2)n1	–	inconclusive: 17.8 µM [inhibitor, partial curve, poor fit]
CN1CCC(NC(=O)c2cc(Cl)cc(Cl)c2)CC1	inactive: 0.241%	–
N#Cc1cccc(CN2CCN(c3nccc(Cl)n3)C(=O)C2)c1	–	inconclusive: 31.6 µM [inhibitor, single point]
Cc1cc(=O)oc2cc(NC(=O)c3cccc(S(=O)(=O)N(C)C)c3)ccc12	–	inconclusive: 20 µM [inhibitor, partial curve, poor fit]
Fc1ccc(-c2csc(=S)[nH]2)cc1	–	inconclusive: 20 µM [inhibitor, single point]
Cn1c(=O)[nH]c(=O)c2c1nc(SCCCc1ccccc1)n2Cc1ccccc1	inactive: 11.1%	–

SMILES	activity change, negative = inhibition	Potency
CC(C)Cc1nn2c(=O)cc(COC(=O)c3ccccc3NC(=O)C3CCCCC3)nc2s1	inactive: -15.8%	–
COc1ccc(-c2nccn3cc(C(=O)NCCc4ccccn4)nc23)cc1	–	active: 25.1 µM
Cc1cc(OCC(O)CN2CCN(c3cccc(Cl)c3)CC2)ccc1Cl (stereo not given)	–	inconclusive: 22.4 µM [inhibitor, single point]
NC(=O)C1CCC(NC(=O)C2(c3cccc(Cl)c3)CCC2)CC1 (stereo not given)	inactive: 10.9%	–
COc1ccc2c(COC(=O)c3ccc(N4CCOCC4)nc3)cc(=O)oc2c1	inactive: -11.1%	–
COc1ccc(C(=O)Nc2ccc(S(=O)(=O)N(Cc3ccccc3)c3ccccc3)cc2)cc1	–	inconclusive: 17.8 µM [inhibitor, partial curve, poor fit]
Cc1cc(C(=O)COC(=O)c2nn(C)c(=O)c3ccccc23)c(C)n1CC(F)(F)F	inactive: 7.04%	–
COc1ccc(C(=O)c2sc3nc(-c4ccc(F)cc4)ccc3c2N)cc1	–	inconclusive: 28.2 µM [inhibitor, partial curve, poor fit]
COc1ccc(-c2cc(CNC(=O)c3cn(CCN)nn3)no2)cc1	inactive: -16.3%	–
COc1ccc(-c2nc(Cn3c(SCc4cccc(C(F)(F)F)c4)nc4cccnc43)c(C)o2)cc1OC	–	inconclusive: 31.6 µM [inhibitor, partial curve, poor fit]
NC(=O)[C@@H]1C[C@H](Oc2cccnc2)CN1C(=O)c1ccc2ccccc2n1	inactive: 9.53%	–
Cn1c(Nc2ccc(Cl)cc2)cc(=O)n(C)c1=O	–	inconclusive: 15.8 µM [inhibitor, partial curve, poor fit]
O=C(CSc1nc2ccccc2c(=O)n1CC1CCCO1)Nc1ccc2[nH]c(=O)[nH]c2c1 (stereo not given)	inactive: -11.9%	–
Cc1cnc(CC2CCN(C(=O)C(C)C)C2)n1C1CC1 (stereo not given)	inactive: -18.7%	–
CCC(Sc1nnc2c(Cl)cc(C(F)(F)F)cn12)C(=O)Nc1cc(C)on1 (stereo not given)	inactive: -13.7%	–
CN(C)C[C@@H]1CN(C2CCOCC2)C[C@H]1NC(=O)c1cccc(Cl)c1	inactive: -24%	–
Cc1cc2cc(-c3c(C)noc3C)nc(N(C)C)c2o1	inactive: -25.4% [at 115 µM]	–
O=C(O)CCc1conc1-c1ccc(F)cc1	inactive: -7.77%	–
O=S(=O)(NCc1csc(Br)c1)c1ccc(Br)s1	inactive: 3.52%	–
COc1ccc(-c2ccc(CCC(=O)O)n2-c2ccccc2O)cc1	–	inconclusive: 8.91 µM [inhibitor, partial curve, poor fit]
CCCCC(=O)N1CCc2c(nc3cc(-c4ccccc4Cl)[nH]n3c2=O)C1	–	inconclusive: 14.1 µM [inhibitor, partial curve]
CCC(CC)C(=O)NC[C@H]1O[C@@H](CC(=O)N2CCN(c3ccc(F)cc3)CC2)[C@H](O)[C@@H]1O	–	inconclusive: 35.5 µM [inhibitor, partial curve, poor fit]

From PubChem BioAssay AID1347165 (National Center for Advancing Translational Sciences (NCATS), 2019)
